Some of the results follow.
These sequences were tested against T1, OsWOX13 (Oryza sativa, UniProt Q5QMM3 1-267) (assay: protein-binding microarray (RPBM); PBS, 2% BSA, 51.3 ng/ul salmon testes DNA, 50 uM zinc acetate, 200 nM TF, 25 C, 1 h; high values mean tight binding). Details: protein: recombinant; tags: N-terminal polyhistidine and DsRed monomer fusion (pET32a); label: CyDye5-dUTP incorporated in the synthesized complementary strand; 3' TTTTT single-stranded linker to array surface; dsDNA, one strand shown.
T1 sequence: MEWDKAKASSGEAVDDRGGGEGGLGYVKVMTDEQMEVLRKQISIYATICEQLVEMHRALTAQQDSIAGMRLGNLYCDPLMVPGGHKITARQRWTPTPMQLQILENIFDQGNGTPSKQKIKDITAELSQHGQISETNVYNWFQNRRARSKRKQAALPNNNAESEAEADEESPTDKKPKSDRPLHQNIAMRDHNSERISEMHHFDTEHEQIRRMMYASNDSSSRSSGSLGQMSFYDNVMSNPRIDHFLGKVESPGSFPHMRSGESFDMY
Procedure, shortened: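 The binding signal is fluorescence intensity per array feature (arbitrary units). Readings came from an Axon 4000B scanner after a washed, 2% BSA-blocked, double-stranded custom Agilent array had been incubated for 1 h at 25 °C with 200 nM protein and 50 µM zinc acetate. The protein was a Ni–NTA-purified transcription factor fused N-terminally to polyhistidine and DsRed, expressed in E. coli BL21-CodonPlus.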

Sequence	binding signal
GATAATGAATCATTGTTGTGTCCATGTATATTACATCATGCGGAGTCACCTAGTGCAG	3310 fluorescence intensity (a.u.)
CCCTAATCACCATCAATCAAGGTACGAGATAATTAAGAGACGGAGTCACCTAGTGCAG	38000 fluorescence intensity (a.u.)
TAGTAATTTATTCCTTATTGGTTTTCACAACTCAAATAATCGGAGTCACCTAGTGCAG	13800 fluorescence intensity (a.u.)
CTTGATTGGATCAGGATCATTTGGCATGGTTTACAAGGGCCGGAGTCACCTAGTGCAG	65100 fluorescence intensity (a.u.)
AAAGATAATTGAAAAGTAAACTTGTTGACAGACGGAATCCCGGAGTCACCTAGTGCAG	30400 fluorescence intensity (a.u.)
CCCCTCGCTTCCCGCCCTTCACTTCTCCCCTTCCAAGAAACGGAGTCACCTAGTGCAG	3340 fluorescence intensity (a.u.)
ATTAATTATATATATTATTTCCATCTGCGGGAGGAATTCGCGGAGTCACCTAGTGCAG	35800 fluorescence intensity (a.u.)
TGTGATTGTCTTAATCTTATTACAGAGCCCAGTCTCACGTCGGAGTCACCTAGTGCAG	49000 fluorescence intensity (a.u.)
CATGTTTCCTTATGTCATACCTGACAATCCTGCCAATATCCGGAGTCACCTAGTGCAG	3230 fluorescence intensity (a.u.)
TAAACTGATATAAGTGCCTAAATTTGGATTGAGGGTGGTGCGGAGTCACCTAGTGCAG	8300 fluorescence intensity (a.u.)
AGCTAATACTTAATTAATCACGCGTTAATGGACTGCTCCGCGGAGTCACCTAGTGCAG	26700 fluorescence intensity (a.u.)
ACGATCACCGGACTAATTGACTTTCCCGACTAATAATAAACGGAGTCACCTAGTGCAG	11300 fluorescence intensity (a.u.)
ATTTATTTGATTTAAATGGATCAATTACCCAATTAAATCTCGGAGTCACCTAGTGCAG	32600 fluorescence intensity (a.u.)
ATATATATATATATATATATATATATATAGAGAGAGAGAGCGGAGTCACCTAGTGCAG	10500 fluorescence intensity (a.u.)
GTAAATTACTCCAACCCTTTCTCTCCATGCATCTCACCTCCGGAGTCACCTAGTGCAG	7640 fluorescence intensity (a.u.)
TACTGGTAAGTACCTTTAATTGATTGGGCCCGTATACCTTCGGAGTCACCTAGTGCAG	20500 fluorescence intensity (a.u.)
TTTAATTCATCATAATCTAATAACCGAAAATTTAGTAGTACGGAGTCACCTAGTGCAG	3610 fluorescence intensity (a.u.)
TCAAAATTGGATCAATCCCTGCAATTAGCGATCCACACAGCGGAGTCACCTAGTGCAG	22800 fluorescence intensity (a.u.)
CGTGATGAAGATTAAGGACCTGTTTAGATTGGTGTCATTTCGGAGTCACCTAGTGCAG	13500 fluorescence intensity (a.u.)
TATCATAAATGATCCTACTAATTAGTACTCCTAATATATGCGGAGTCACCTAGTGCAG	19900 fluorescence intensity (a.u.)
CCTAAAATTATTTCTTACTATGATTTGTGATGTCGCGCTTCGGAGTCACCTAGTGCAG	18800 fluorescence intensity (a.u.)

Sequence	binding signal
GGTAATGCAAAATGATTATATATCATCTCTTTTCTCCCTCCGGAGTCACCTAGTGCAG	21200 fluorescence intensity (a.u.)
TTTCATCCCTCCAAATTGCCAATCTAATCAAACACTTAAGCGGAGTCACCTAGTGCAG	18100 fluorescence intensity (a.u.)
AATCCATGATTAGCCTATGTGATGCTACAGTAAATATGTGCGGAGTCACCTAGTGCAG	13200 fluorescence intensity (a.u.)
TGTGTAAGTATAACGTTATATGATTAATGATGAACACGCACGGAGTCACCTAGTGCAG	3180 fluorescence intensity (a.u.)
TGATTGATTACACTAATGTGTTCCTTAGCTCATGTCAGCACGGAGTCACCTAGTGCAG	43700 fluorescence intensity (a.u.)
GTTAATAGCCTCATCACTCTAAACTTCCACGACTTGTTTGCGGAGTCACCTAGTGCAG	5850 fluorescence intensity (a.u.)
AATCTGGATTGATAAAGTTTTACTCCCTTCATCCTTAAAACGGAGTCACCTAGTGCAG	8100 fluorescence intensity (a.u.)
ACAAATAATTTTGTCCCAGAAATATCATCGTCGTTAGGGTCGGAGTCACCTAGTGCAG	4240 fluorescence intensity (a.u.)
TGAGCCAATCAATCTGCTTGGTCCAGTGGTACCTGTTAGCCGGAGTCACCTAGTGCAG	18200 fluorescence intensity (a.u.)
AGAGAAAGCAATTAGCCACTAACAGAGAGCAAAGAGGACACGGAGTCACCTAGTGCAG	4410 fluorescence intensity (a.u.)
GGGCTAATTTGGTTTGAGATCTAAATTAGGCTTGCCAATTCGGAGTCACCTAGTGCAG	28000 fluorescence intensity (a.u.)
TGGTTACAGTTGATAGATCAAACAAGTTGATATGCTGAATCGGAGTCACCTAGTGCAG	3580 fluorescence intensity (a.u.)
ACCTTAATGGACACATCATGCCCAACTAAATCCATATTTGCGGAGTCACCTAGTGCAG	24400 fluorescence intensity (a.u.)
CTCAAAATTAGCTCCAAATTTACGGTTGAAAATTCAAAATCGGAGTCACCTAGTGCAG	6450 fluorescence intensity (a.u.)
TAGTGTGTTAATTTAAATTAAAGTTCTTCCAACTGAATTTCGGAGTCACCTAGTGCAG	33100 fluorescence intensity (a.u.)
GTCATCTTACTTTGATAGTTAATTGTTCCATCTAAAACTTCGGAGTCACCTAGTGCAG	5320 fluorescence intensity (a.u.)
AGGATGGGGATAGGGTTGATTTGTAATAGGGGTATTTTGGCGGAGTCACCTAGTGCAG	5940 fluorescence intensity (a.u.)
ATTTTACCCAAATAGCTTAAACCACAACAGTTTTGGCTAGCGGAGTCACCTAGTGCAG	6050 fluorescence intensity (a.u.)
ATATAGTAAACTAGAACCGGATTGAACGTATCCTAGTACTCGGAGTCACCTAGTGCAG	3200 fluorescence intensity (a.u.)
AGCTAATTAATTCCCACTACTGAGTGCTAATAACTCCCGCCGGAGTCACCTAGTGCAG	46200 fluorescence intensity (a.u.)
GTGTAATTACAATGTAACTTGTATGTAATTACACTGTAACCGGAGTCACCTAGTGCAG	31900 fluorescence intensity (a.u.)

Sequence	binding signal
GTGCTGTGATTGGCCGCGCGGGATTTCCTGGGCGGGCGGGCGGAGTCACCTAGTGCAG	22600 fluorescence intensity (a.u.)
TTCTAGACTGAATTGCCACCTAAGCGCCACATCAGTGCCACGGAGTCACCTAGTGCAG	3780 fluorescence intensity (a.u.)
AGGTTAATTTCTCTGAGCTCAGCAAACCATGTTCAGTTAACGGAGTCACCTAGTGCAG	6280 fluorescence intensity (a.u.)
GTTATCTCAATCGAGCCTAAATTATGGCCCGTCACGGATACGGAGTCACCTAGTGCAG	3520 fluorescence intensity (a.u.)
GTTGCAGCTGATACAGACTTTGATTGAAGATAGAAGGCAACGGAGTCACCTAGTGCAG	18000 fluorescence intensity (a.u.)
GGCTAATTGAGGCCATGCCTGTCGTGCAGGACCAGGGCAACGGAGTCACCTAGTGCAG	36600 fluorescence intensity (a.u.)
AGAGTGTTATGTTTAATTGGCTTAGGCTTTATTTGTTCGACGGAGTCACCTAGTGCAG	4630 fluorescence intensity (a.u.)
GCTAGGCTTGGGCAAATTTGTAATTGCAATTAACCCCACGCGGAGTCACCTAGTGCAG	7260 fluorescence intensity (a.u.)
GACTAATTTTAGTCTTAGGACTAAGGCTGTGTTTGGGAACCGGAGTCACCTAGTGCAG	8970 fluorescence intensity (a.u.)
CTGTATGTGATTTGAAACCAATGTTAAGTTTCAGCATATACGGAGTCACCTAGTGCAG	6230 fluorescence intensity (a.u.)
CGTGATGAGTAAATGGGCTGGGTTTTGCATCTTCTTCGGCCGGAGTCACCTAGTGCAG	28500 fluorescence intensity (a.u.)
TAAATTAATAGTAAACCATCTCAATAGTATGTCTACATGGCGGAGTCACCTAGTGCAG	7750 fluorescence intensity (a.u.)
GAGATTGACGAAGTCACCACAGGCGCCTCGAGCACACTCACGGAGTCACCTAGTGCAG	10800 fluorescence intensity (a.u.)
TTGATTTGTGGAAGATAGGAGACTATAAGTTAACTTGTTTCGGAGTCACCTAGTGCAG	26900 fluorescence intensity (a.u.)
ATAATCAATTATTAAGTGACCTAATTAATACTGCAACTTACGGAGTCACCTAGTGCAG	23000 fluorescence intensity (a.u.)
TGTCTAATTGGTATCGTGAAGACTCTGAACCATTTCCATCCGGAGTCACCTAGTGCAG	35200 fluorescence intensity (a.u.)
TCTTAATTGGTCAAACTAATCATACACGAACATACAATGGCGGAGTCACCTAGTGCAG	40900 fluorescence intensity (a.u.)
ACATTAATGTGATTTCCCATTTCTACCCTATAGTTCAACACGGAGTCACCTAGTGCAG	12800 fluorescence intensity (a.u.)
GCGTGATGTGCATTGATTACCATACATGCATGCCGACCAACGGAGTCACCTAGTGCAG	31400 fluorescence intensity (a.u.)
TTATGAAAATATATTTAATTATTGATTTGATGAAACTAATCGGAGTCACCTAGTGCAG	5790 fluorescence intensity (a.u.)
TTCCTGTTTGATTTGAATGTTTACCCAATAAACTCCGGTACGGAGTCACCTAGTGCAG	12200 fluorescence intensity (a.u.)

Sequence	binding signal
GATAATTAAAAGGATCAGATGGACAGAGGGAGAGAGCCAACGGAGTCACCTAGTGCAG	13200 fluorescence intensity (a.u.)
GAAAATGACCAAATTATGAAAACATCCAGGCAATGGATCTCGGAGTCACCTAGTGCAG	3240 fluorescence intensity (a.u.)
CCCATCCAATCATCCCAACAACAACCAGCTGGAAAATGGACGGAGTCACCTAGTGCAG	6940 fluorescence intensity (a.u.)
AACATGATAAATTGCTAGTTTCCTACGGACGCTAAACGAGCGGAGTCACCTAGTGCAG	23300 fluorescence intensity (a.u.)
GCGATGGTTATATATCGGTTGATTGTTTGCCATCTCATAGCGGAGTCACCTAGTGCAG	6090 fluorescence intensity (a.u.)
TTTGCCACTAATTAATCTACTAATGGCTTATGATAGTCATCGGAGTCACCTAGTGCAG	10700 fluorescence intensity (a.u.)
TTAAGTAGTAATTACTTGCATTGAGAAGACATTTTCAGCTCGGAGTCACCTAGTGCAG	3870 fluorescence intensity (a.u.)
AGTAGAAAATTTGTTGACAAATTTATAGGTGGTTCCGCTTCGGAGTCACCTAGTGCAG	18200 fluorescence intensity (a.u.)
GAGACGAATTTATTAAGCCTAATTACATATGGGTTACTGTCGGAGTCACCTAGTGCAG	6220 fluorescence intensity (a.u.)
TCTGATAGGTACATACTAAAATACATATGTTCTGTTTGGACGGAGTCACCTAGTGCAG	22700 fluorescence intensity (a.u.)
TGTGATTATGTATAGCTGTTTGCACAGGCTAACAAACAGTCGGAGTCACCTAGTGCAG	20600 fluorescence intensity (a.u.)
GAGATTGGAAGTTAATATTCAAGGAAGAAGACCACACTAGCGGAGTCACCTAGTGCAG	14600 fluorescence intensity (a.u.)
TCGAAAATTACTAGTGAATTTCCGGGCGTGACACACGATGCGGAGTCACCTAGTGCAG	4070 fluorescence intensity (a.u.)
TCTGGATTGAATCCGGGCGTAACCGAATAAGGCCTAAGGGCGGAGTCACCTAGTGCAG	11300 fluorescence intensity (a.u.)
ATGAACGAGCTATTAAATTGTCTATAGATGAATTGGAGCTCGGAGTCACCTAGTGCAG	3510 fluorescence intensity (a.u.)
AATCATTTTATTTGACTAATACACGTCAGGATTGAATGAGCGGAGTCACCTAGTGCAG	4110 fluorescence intensity (a.u.)
TTGAATCAATGACTGATCATTGCCCAGACTGCTATTTTCCCGGAGTCACCTAGTGCAG	7090 fluorescence intensity (a.u.)
TGCAGTTACTCCAATCAGCCGTCACGTACGGTTTTGAGAGCGGAGTCACCTAGTGCAG	8420 fluorescence intensity (a.u.)
CTTTTATAATTTATGTAAATTACTTTTAGACTTTACTAAACGGAGTCACCTAGTGCAG	12500 fluorescence intensity (a.u.)
TAGTCTACTTAATAATTATTCAAATTTAATATTTCATAACCGGAGTCACCTAGTGCAG	5880 fluorescence intensity (a.u.)
TGTTAATTAAGGATAGTGTCTGCTACCTTCCAGGTTTCCGCGGAGTCACCTAGTGCAG	19200 fluorescence intensity (a.u.)
